Results reported in the supplement of paper PMC11417369.
The list shows a part of the results.

The sequences below were run on PfSIP2 AP2 domain 1 (GST-tagged) (assay: gcPBM binding intensity (ln(normalized median fluorescence intensity)); higher = stronger DNA binding).
How it was run: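 GST-tagged P. falciparum DNA-binding domains, expressed in E. coli (about 25 μg on average), were applied for 1 h to an Agilent 4 × 180k array of primer-extended double-stranded 36-bp intergenic genomic probes plus negative controls. The binding buffer was 1× PBS with 1% milk, 0.2 mg/ml BSA, 0.5% salmon testes DNA and 0.03% Triton X-100. Bound protein was detected with Alexa488 anti-GST antibody and scanned at 488 nm. Binding intensity is the highest Masliner-normalised natural-log median intensity across replicate spots of either probe orientation.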

Point of comparison: “TATTATAAATAAATAGAAAAAAAAATGATAAATGGA [CACACA_negctrl_site865]”, “gcPBM binding intensity (ln)” value 6.92. Against it:
- CATATAATAAATAATACACACATATTGGAAATATAT [CACACA_site3212] — higher, 6.97
- TTTATTTATTTATATTTTTTTATATAATTTATATAT [GTGCAC_negctrl_site301] — lower, 6.8
- AAAGGTATATATGTGTGTACATATATATATATATAT [XGTACX_site5629] — higher, 8.98
- TTTTGAGAAAAAATAAAATAATAAATAAAAATACAT [XGTACX_negctrl_site66] — higher, 7.14
- AATACAATTGAAAATTGTACTTTGTTTTTTATAAAT [XGTACX_site4080] — lower, 6.7
- CACATTTCTGTAGTTGCATGTAGAAAAAAAAAAAAA [TGCATGCA_site810] — higher, 7.19
- TACACAAACAGACACACACACACACGCGCACAAAAA [CACACA_site7192] — higher, 7.36
- ATTACATGTATACATGTCAACACGTATAAAAAAAAA [CACACA_negctrl_site1154] — higher, 7.06
- ATTATAAATATATTTTGTACTTAAAAGGAAAAAAAA [XGTACX_site55] — higher, 6.97
- AATAAGCATAGACACACACACAAAAAAAAAAAAAAA [CACACA_site6476] — higher, 7.01
- GATTATCTTCAAGTATGTACACACTATATATAATAA [XGTACX_site5108] — higher, 7.49
- AATAAATAGAGGAAATGTACATATAAAAATAATTTC [XGTACX_site2454] — higher, 6.93
- TTAACATCTTCGTTGACACACAAAAAAAAAAATAAT [CACACA_site1819] — higher, 7.1
- GCACGAAACAATGTATATATATATATATATATATAT [GTGCAC_negctrl_site412] — higher, 9.78
- TTCTTTATGGAAGTGTAAAAAAAGAAATACTTTTTT [CACACA_negctrl_site915] — lower, 6.76
- ATATAACAGAAACACACACACATATATATATATTAT [CACACA_site4140] — higher, 7.31
- TATTTTTATATATAATCACACATTGGAATGTTCTAA [CACACA_site5540] — higher, 7.03
- ATAAATGATAGTAAAAGTACACAAAATGTTTTAAAA [XGTACX_site1623] — lower, 6.91
- CCTTTTTCTAATGGATGTACTTATTATATACATTAT [XGTACX_site281] — higher, 7.14
- AAGAAAAGTAAATATGCATGTAGGGTAGGTTATTTT [TGCATGCA_site46] — higher, 7.1
- TATATATATCTGTATACACACATATGTATGTTATGT [CACACA_site6090] — higher, 7.36
- ATATTTTTTCTGAACGGTACAGAATTTTTCAAGATT [XGTACX_site484] — higher, 6.97
- AAATTTATATATAGTTGTACAAAAATATGTTTCGTA [XGTACX_site4801] — higher, 6.97
- TTATTTTATCACACATGTACATATGTTAATTTTTTT [XGTACX_site5598] — higher, 7.17
- TGAATAATCAATAGTACACACATATAAATATATATA [CACACA_site2813] — higher, 7.28
- AAAATAAAAAGAAATAAATTAACAGTAAGGAAAAAA [CACACA_negctrl_site1105] — higher, 7
- AACATTTATATTTAAGTGCAGATGCTGTAATTTAGA — higher, 7.44
- TTTTTATAACAAAGTATTTAAATAATTTATACTAAT [TGCATGCA_negctrl_site104] — lower, 6.89
- GAACAAATTACAAGTTGTACTTTATGTAAATTATTA [XGTACX_site5304] — lower, 6.76
- ATGCGTTCATACATACATACATACATACAATTTGTA [TGCATGCA_negctrl_site50] — higher, 7.11
- TAATTCATCCTATGCACACACAATACCAAAATGTGC [CACACA_site4269] — higher, 7.26
- TAATTTATTAATAATTGTACAGATATTATACTTAAA [XGTACX_site8947] — lower, 6.83
- TTTTGAATTAAACAAGCATGCTTTATTTACTTCTTA [TGCATGCA_site289] — lower, 6.61
- TGCTCATGAGGTCAGAGTACAAAATAGTAAATGTAT [XGTACX_site2973] — higher, 6.93
- TTTATTTTTATTTTTGTGCACGGGATTAAATAAAAG [GTGCAC_site9842] — higher, 10.5
- TTTTTTTTTTTTTTTCTTTTTTATTCTCACAAAAAA [CACACA_negctrl_site1790] — lower, 6.87
- TATATATACTTAGAAACACACAAAAATATTTTATAA [CACACA_site2578] — lower, 6.91
- TAATTAGTTTTTACTTTTTTTTTTTTTTTTCTATAT [CACACA_negctrl_site1024] — lower, 6.77
- TTATGTATATTATAAATTAATACCTTTAAATTAATA [CACACA_negctrl_site67] — lower, 6.78
- ATAATCCTGAAACACACACACACACCCATAAATAAA [CACACA_site481] — higher, 7.1
- TATAACTTATTTTTTAGTACATATTATAGTTCATTT [XGTACX_site8649] — lower, 6.89
- TAAAAGGAGACATATACACACATATATATATATATA [CACACA_site5539] — higher, 9.31
- ATTCCTCATTAATATTCTTATTTTTTAATTCACATT [XGTACX_negctrl_site329] — higher, 7.08
- TTTATTTAAAATAAGTGTACTAGAAAAATTAAGCAG [XGTACX_site4982] — higher, 7.46
- TGTGATTATGATAAAAGTACAGAAATAAATATACTA [XGTACX_site38] — higher, 6.99
- ATAAAAAGCTAAAAAGTGCAAAAAGTAAATATTTAA — higher, 8.14
- TTTTATAAAGAACACAGACACACAAAGAAAGAACCA [CACACA_site4174] — higher, 7.33
- ACCAATTTGACAAACTGTACAAAAAAAATATTAAAA [XGTACX_site1186] — higher, 6.99
- TACACAAAAATAAACACACACACATATATATATATA [CACACA_site1000] — higher, 9.64
- TATATATTCCTCCATAGTACAATAATAAAGATAAAA [XGTACX_site5785] — higher, 7.1
- CTTTCCCTATATTGCTGTACATGTATTCAAAAAACA [XGTACX_site353] — higher, 7.46
- CGCGAACATACATACACACACATATATATATCTGTA [CACACA_site4277] — lower, 6.9
- AACACCCAAAAACACACACACATACATACATACATA [CACACA_site4411] — higher, 7.34
- AACATTAATTTCCTATGTACTTAATATATTGTTTTT [XGTACX_site4440] — higher, 7.11
- ATTTATATATATGTATGTACGTATGTGTGTATATGT [XGTACX_site7587] — higher, 7.73
- AAATGTGTTAATGTGCGTACACATATATATAATATT [XGTACX_site2792] — higher, 7.38
- ATCACTAATTTTTTTACACACCACAATTTAATTTTT [CACACA_site1186] — higher, 7.17
- AATATATACACATGCGCACACACAAGTGGGAAATTT [CACACA_site8527] — higher, 7.3
- TTTATATTTCATTTGTTATTTTTCTTGGTTCTATAT [TGCATGCA_negctrl_site23] — lower, 6.83
- TTTTTTTTTTTTTTTTTTATATTTCATAATTTCATT [XGTACX_negctrl_site579] — higher, 7.22
- TCATTTAAGTCATATTGAAATATGCATTATTCAAAA [CACACA_negctrl_site958] — lower, 6.72
- TTTTGCCTGAACAATGCATGTTATTTTTATTTTTTT [TGCATGCA_site673] — lower, 6.9
- AATATACGATTGTCATTCATACATTGTTAACATAGT [CACACA_negctrl_site1151] — higher, 6.99
- ATATACAGAAAAAATTAAAATAAATATGCAAAACAA [CACACA_negctrl_site704] — higher, 7.2
- TACAATGAACATGAAACACACAAAAAAAAAAAAAAA [CACACA_site1544] — higher, 6.98
- ACATAGTAAATATTATGTACATAATATATACATTTA [XGTACX_site7500] — higher, 7.1
- TACATATATATAATATATATATCATCATATTTTCTT [XGTACX_negctrl_site478] — lower, 6.82
- CTTAAACTTTTAAATACACACATACAGACATACACA [CACACA_site6401] — higher, 7.12
- TTTACTTTTTTTATATATTATTTATTATATAATATA [CACACA_negctrl_site211] — higher, 6.96
- TAAAAATGATCAAAGGGTACAGTATTAATTAAAAAA [XGTACX_site1079] — higher, 7
- TTTATTTATATAATTACACACATATATACTCAAATG [CACACA_site5543] — higher, 7.04
- ATATGTACTATACGCACACACACTCACATATTTATA [CACACA_site7510] — higher, 7.49
- TTCTTAATTCATACCATCAAAACATTTATTCATATC [CACACA_negctrl_site43] — higher, 6.99
- ATAGGGTTTCTACTTTAACATTTTTGAAATATTATA [GTGCAC_negctrl_site260] — higher, 7.03
- TATTTAGACATAACAAATAGACTAACAAAAGATTTA [GTGCAC_negctrl_site614] — lower, 6.78
- ATAATAAATACACTAGTGCAAAATAATATATGTACT [GTGCAC_site9707] — higher, 8.13
- ATTACCATATTTTGTACACACATCTTTATCTCAATA [CACACA_site3217] — higher, 7.23
- TAAAAATTAAAGTGTACACATATATATATATATATA [CACACA_site4781] — higher, 9.62
- TTTTATGTTTATGTGGTGCATGTTTTGAAGAAAATA [GTGCAC_site9616] — higher, 10.3
- TATAAACCGACGAAAACACACATATGTAAATATATA [CACACA_site491] — higher, 7.12
- AAACCTATGTATATTATACACACTCCAAACTATTAT [CACACA_site8536] — higher, 6.98
- CGGGGGTAGTTTTATGCACACGTTTATTAATGCTTC [CACACA_site5717] — higher, 8.1
- ACATGAATATATACACGTACATATATACATATATAT [XGTACX_site5872] — higher, 7.42
- ACCAATAATATACATACACACATAAATGTTTATATA [CACACA_site4328] — higher, 7.21
- TGAAAAACTATCAGAGTGCATATATAGCTCGATACA — higher, 8.07
- TAAAATAATATATGGTGTACACAAAAGTATAAATAA [XGTACX_site4991] — higher, 7.03
